# Reference: PubChem BioAssay AID1347043 (National Center for Advancing Translational Sciences (NCATS), 2019)
# Out of some 76,000 compounds screened, about 1,900 (2.5%) were called active. Inconclusive means that the source gave no clear call. Such entries were picked first, then a sample of the others. The call rests on the fitted dose curve; in most records, active means well fitted inhibition curve with a large enough effect; inconclusive means small, poorly fitted or top-dose-only effect; inactive means flat fitted curve, though single readings scatter. A potency beside an inconclusive call is a rough fit, not a confirmed value.
# Target: Luciferin 4-monooxygenase (Photinus pyralis) (UniProt P08659)
# Sequence of UniProt P08659 (P08659 whole entry, looked up): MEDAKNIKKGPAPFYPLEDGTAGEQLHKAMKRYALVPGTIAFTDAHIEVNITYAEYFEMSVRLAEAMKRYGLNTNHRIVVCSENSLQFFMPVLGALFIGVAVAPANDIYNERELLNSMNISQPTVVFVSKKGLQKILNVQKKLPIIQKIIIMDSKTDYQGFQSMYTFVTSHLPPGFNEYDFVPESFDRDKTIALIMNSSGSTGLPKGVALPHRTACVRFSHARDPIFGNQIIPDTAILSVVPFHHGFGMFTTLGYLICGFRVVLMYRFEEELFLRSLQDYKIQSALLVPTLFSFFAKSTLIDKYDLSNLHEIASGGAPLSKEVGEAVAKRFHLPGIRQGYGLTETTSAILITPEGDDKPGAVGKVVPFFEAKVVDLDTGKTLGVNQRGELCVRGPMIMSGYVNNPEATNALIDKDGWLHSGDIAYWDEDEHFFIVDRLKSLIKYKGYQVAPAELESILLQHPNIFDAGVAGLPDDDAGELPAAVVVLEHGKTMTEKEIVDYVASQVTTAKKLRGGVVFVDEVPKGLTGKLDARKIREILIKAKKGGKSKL
# Assay: Firefly luciferase inhibition profiling of diverse chemical library using quantitative high-throughput screening; further: nearly all actives have a fitted effect of over 65% in size
# Conditions: purified P. pyralis luciferase, luminescence, biochemical; activity change, negative = inhibition: at 115 µM (top of the series) unless noted
# Excerpt: Firefly (Photinus pyralis) luciferase is one of the most commonly used transcriptional reporters for a number of reasons. It is considered one of the more dynamically responsive reporters - that is, responsive to changes in reporter transcription - as it requires no post-translational modifications and is enzymatically active directly after protein synthesis (Wood, 1998). Additionally, the half-life of the luciferase protein is short relative to other reporter-gene products (Wood, 1995). Whereas reporters with long half-lives potentially allow for increased signal due to accumulation of reporter-gene product, once accumulated in the cell, dynamic changes in reporter-gene expression may be difficult to detect(Fan and Wood, 2007; Almond et al., 2004). It has been shown that wild-type P. pyralis luciferase has a half-life of approximately four hours in mammalian cells (Thompson et al., 1991). Firefly luciferase reporter-gene assays are also generally considered one of the most sensitive assay types (Wood, 1995; Wood, 1998). Although light produced in a bioluminescence reaction is of lower intensity than that produced during fluorescence emission, this is offset by little to no background light inherent to luminescent assays. Thus the luciferase reporter can be expressed at much lower levels than fluorescent proteins while still providing robust signal. However, it was initially observed, in 1991, by Thompson et al., that compounds that resemble the substrates of firefly luciferase (FLuc) can act as competitive inhibitors of the enzyme, and that these compounds, upon interaction with luciferase in the cell, can actually stabilize the protein and increase its half-life. Accumulated intracellular FLuc protein can be measured as an increase in luminescence signal, upon addition of detection reagents (which contain high concentrations of FLuc substrates) commonly used in high-throughput screening. In cell-based reporter gene assays that use FLuc as the reporter gene to quantitate the potential influence of a given compound against the target biology, this apparent increase in luminescence can mistakenly be interpreted as identification of a compound that is active against the target of interest. FLuc inhibitory compounds that stabilize the FLuc protein will give an identical read-out, making it difficult to distinguish compounds that are active against the target from those active against FLuc. In summary, the results generated here constitutes a valuable resource for the scientific community and provides insight on identifying compounds with inhibitory activity for the commonly-used reporter, firefly luciferase. References: -Almond, B., Zdanovsky, A., Zdanovskaia, M., Ma, D., Stecha, P., Paguio, A., Garvin, D., and Wood, K. (2004). Introducing the Rapid Response Reporter Vectors. Promega Notes 87, 18-22. -Fan, F., and Wood, K.V. (2007). Bioluminescent assays for high-throughput screening. Assay Drug Dev Technol 5, 127-136. -Thompson, J.F., Hayes, L.S., and Lloyd, D.B. (1991). Modulation of firefly luciferase stability and impact on studies of gene regulation. Gene 103, 171-177. -Wood, K.V. (1998). The chemistry of bioluminescent reporter assays. Promega Notes 65, 14-20. -Wood, K.V. (1995). Marker proteins for gene expression. Curr Opin Biotechnol 6, 50-58.
# Reagents: 50mM Tris acetate, pH 7.5; 10mM Mg acetate; 10uM D-luciferin (Sigma #L9504); 10uM ATP; 0.01% Tween-20; 0.05% BSA; 10nM P. pyralis luciferase (Sigma #L9506) Control compounds used were two known firefly luciferase inhibitors (compounds (2) and (5) in Auld et al., 2010), and DMSO. Assay Summary: Three microliters containing firefly luciferase substrates in buffer (final concentrations: 50mM Tris acetate, pH 7.5, 10mM Mg acetate, 0.01% Tween-20, 0.05% BSA, 10uM D-luciferin, and 10uM ATP) are dispensed into each well of a Greiner white, solid-bottom 1536-well format plate using a flying reagent dispenser (FRD). […]
# On the % scale 0 is the no-effect control and ±100 the full control effect; tags describe the fitted curve by direction and shape.
Structure (SMILES),"activity change, negative = inhibition",Potency
O=C(NC1CCCC1)c1ccc2c(c1)N(S(=O)(=O)c1ccccc1)CC2,inactive: -7.86%,–
Cn1nccc1C(=O)N1CCCC(c2nc(-c3ccccc3)no2)CCNC(=O)CC1 (stereo not drawn),–,"inconclusive: 50.1 µM [inhibitor, partial curve]"
c1ccc(-c2cc3c(cn2)NCCN(CC2CC2)C3)cc1,–,"inconclusive: 112 µM [inhibitor, partial curve]"
CNC(=O)c1cccc2c1CCN2C(=O)Nc1ccc(F)cc1,–,active: 0.708 µM
CCN1C(=O)C2CC3(CCN(Cc4cn[nH]c4-c4cccs4)CC3)CN2C1=O (stereo not drawn),inactive: 4.12%,–
O=C(O)c1ccc(CN2C[C@H](O)C[C@H]2c2nc(-c3cccc([N+](=O)[O-])c3)no2)cc1,–,"inconclusive: 126 µM [inhibitor, single point]"
CN1CC2(CCCN(C(=O)c3cn4cc(Cl)ccc4n3)C2)OC1=O (stereo not drawn),–,"inconclusive: 50.1 µM [inhibitor, partial curve]"
O=C(CC1CCCC1)Nc1cnc(-c2cccnc2)nc1,–,"inconclusive: 39.8 µM [inhibitor, partial curve]"
O=C1OCCCN1CCNc1ccc(-c2nc(-c3ccccc3F)no2)cn1,–,active: 35.5 µM
CCc1ccc(CNC(=O)CCc2conc2-c2cccc(C)c2)cc1,inactive: -21.4%,–
O=C(NC1CCCC1)N1CCCC(Cn2c(C3CC3)nc3cccnc32)C1 (stereo not drawn),inactive: 3.65%,–
COCCN1C(=O)c2ccccc2C(C(=O)Nc2nc3c(s2)CCC3)C12CCCCC2 (stereo not drawn),inactive: -13.6%,–
O=C1CC(c2ccccc2)N(Cc2ccncc2)CCCN(C(=O)c2cc3ccccc3[nH]2)CCN1 (stereo not drawn),–,"inconclusive: 35.5 µM [inhibitor, partial curve]"
COc1cccc(NC(=O)CCC2CCN(C(=O)c3ccccc3)CC2)c1,–,"inconclusive: 39.8 µM [inhibitor, partial curve, poor fit]"
NC(=O)c1csc(S(=O)(=O)N2CCC(CO)(CN3CCCC3)CC2)c1,inactive: 6.49%,–
OC[C@H]1CCN(Cc2ccc(-c3cccc(Cl)c3Cl)o2)C[C@@H]1O,–,"inconclusive: 70.8 µM [inhibitor, partial curve, poor fit]"
Cc1csc(NC(=O)c2ccc3c(c2)OCC(=O)N(C)C3)n1,–,active: 5.01 µM
O=C(NCc1cccnc1)C1CCN(C(=O)c2ncn3c2COC(c2ccc(F)cc2)C3)CC1 (stereo not drawn),–,"inconclusive: 39.8 µM [inhibitor, partial curve]"
COc1ccc(CN2CC[C@H](c3nc4ccc(OC)cc4[nH]3)C2)cc1,–,"inconclusive: 112 µM [inhibitor, single point]"
O=C(c1ccc(-c2ccccc2CO)nc1)N1CCC(CCc2ccccc2)CC1,inactive: 11.9%,–
Cn1nc(C(=O)Nc2cccc(-c3nnc4n3CCCC4)c2)c2ccccc21,–,"inconclusive: 39.8 µM [inhibitor, partial curve]"
COc1ccc(-c2nnc(CCC(=O)N3CCCCC3)c(=O)[nH]2)cc1,–,"inconclusive: 44.7 µM [inhibitor, partial curve, poor fit]"

Structure (SMILES),"activity change, negative = inhibition",Potency
COc1ccccc1CC(=O)N1CCc2c(nc3cc(-c4ccccc4Cl)[nH]n3c2=O)C1,–,"inconclusive: 39.8 µM [inhibitor, partial curve, poor fit]"
COc1ccc(NC(=O)CCC2CCCN(C(=O)CC3=CCCCC3)C2)cc1Cl (stereo not drawn),–,"inconclusive: 50.1 µM [inhibitor, partial curve]"
COc1ccc(C)cc1Nc1nc(-c2ccc(OC)c(OC)c2)no1,–,"inconclusive: 44.7 µM [inhibitor, partial curve]"
CNC(=O)Nc1ccc(C)n(CC(=O)NCc2ccc(Cl)cc2)c1=O,–,"inconclusive: 31.6 µM [inhibitor, partial curve]"
COc1ccc(-c2noc([C@@H]3C[C@@H](O)CN3Cc3cccc(C#N)c3)n2)cc1,–,active: 22.4 µM
COc1ccc(-c2cc3nc4c(c(=O)n3[nH]2)CN(C(=O)c2ccc(Cc3c(C)noc3C)o2)CC4)cc1,–,"inconclusive: 2.82 µM [inhibitor, full curve]"
COc1ccc(F)cc1-c1nc2ccc(-c3ccc(OC)c(OC)c3OC)cc2o1,–,"inconclusive: 39.8 µM [inhibitor, partial curve]"
c1ccc2oc(-c3ccnc4nc(C5CCC5)nn34)cc2c1,–,"inconclusive: 44.7 µM [inhibitor, partial curve, poor fit]"
CCn1nc(C(C)C)cc1C(=O)N1C[C@@H]2CCN(C)C[C@]2(C(=O)O)C1,inactive: 3.22%,–
COc1ccc(OC)c(CN2CCNc3cc(-c4ccnc(C)c4)ncc3C2)c1,–,"inconclusive: 79.4 µM [inhibitor, partial curve, poor fit]"
O=C(Cc1cccc(F)c1)NCCn1ccn2nc(-c3ccc(F)cc3)cc2c1=O,–,"inconclusive: 22.4 µM [inhibitor, full curve]"
CS(=O)(=O)N1CCN(C(=O)CCC2CCN(c3cc(NC4CC4)ncn3)CC2)CC1,–,"inconclusive: 50.1 µM [inhibitor, partial curve]"
O=C(NC1CCCN(c2cc(-c3ccc(Cl)cc3)[nH]n2)C1)c1cccs1 (stereo not drawn),–,"inconclusive: 10 µM [inhibitor, full curve]"
COc1ccc(NC(=O)N2CCC3(CC2)SCC(=O)N3c2ccc(Cl)cc2)cc1,–,"inconclusive: 35.5 µM [inhibitor, partial curve]"
COc1ccc(CN2CCNc3cnc(Nc4cccnc4)cc3C2)cc1O,inactive: 10.6% [at 172 µM],–
c1cc(N2CCCCC2)ccc1-c1n[nH]c(C2CCOC2)n1 (stereo not drawn),–,active: 6.31 µM
Cn1ccc(CN2CCn3c(nn(-c4ccc(F)cc4F)c3=O)C2)c1,inactive: -0.768%,–
COc1ccc(-c2cc(N3CCCC(NC(=O)c4ccncc4)C3)n[nH]2)cc1 (stereo not drawn),–,active: 12.6 µM
COc1ccc(C(=O)N2C[C@@H]3C[C@H](C2)c2ccc(NS(=O)(=O)c4ccc(NC(C)=O)cc4)c(=O)n2C3)cc1,inactive: -13.8%,–
O=C1CCN(S(=O)(=O)c2ccccc2)CCCN(C(=O)c2cc3ccccc3[nH]2)CCN1,–,"inconclusive: 3.16 µM [inhibitor, full curve]"
O=C(c1ccc(C(F)(F)F)cc1)N1CCC2(CC1)CC(c1cccc(C(F)(F)F)c1)=NO2,inactive: 7.78%,–
